The full ranking holds about 33,000 sequences; the median of “E-score (-0.5 to 0.5)” is about -0.017, and the highest 2% start at about 0.3. This is one part of the list.
Biological target: T1, Sut1 (UniProt P53032)
T1 sequence: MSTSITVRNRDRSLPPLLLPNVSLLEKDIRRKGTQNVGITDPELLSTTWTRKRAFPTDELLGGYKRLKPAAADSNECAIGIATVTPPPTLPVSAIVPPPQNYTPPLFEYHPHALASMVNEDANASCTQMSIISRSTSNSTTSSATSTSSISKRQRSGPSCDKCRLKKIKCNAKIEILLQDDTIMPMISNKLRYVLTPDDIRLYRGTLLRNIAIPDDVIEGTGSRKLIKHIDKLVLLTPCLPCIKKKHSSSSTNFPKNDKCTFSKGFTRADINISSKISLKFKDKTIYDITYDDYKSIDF
Assay: PBM E-score (8-mer binding enrichment) (E-score (-0.5 to 0.5)); higher = stronger / more preferred TF binding; most listed sequences are background and not binding sites
Settings: protein concentration: 200 nM; construct: GST-full length
Procedure, shortened: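 Yeast transcription factors carrying a GST tag, as full-length proteins or DNA-binding domains, were produced by PURExpress in vitro transcription/translation. About 100-200 nM protein was applied to universal all-10-mer Agilent arrays, double-stranded by primer extension on fresh or once-stripped slides. Bound protein was detected with fluorescent anti-GST, and scans were normalised with masliner. The Universal PBM Analysis Suite gave each ungapped eight-base word, pooled with its reverse complement, an E-score, a modified Wilcoxon-Mann-Whitney statistic.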

Sequence | PBM E-score
CGTCGCCC | -0.255
CCCCAGCC | -0.186
CATTACGC | 0.152
ATGTGGGC | -0.0832
CACAGCTA | -0.207
CGATAGGA | 0.0784
ACGGACGG | -0.0102
AAGCGATG | -0.203
TGGGCCAA | -0.0219
GAAAACAA | 0.184
GGAGATTA | 0.257
ATAAGCAT | 0.0632
CAAGATAC | 0.0202
CAGGTGGG | -0.239
ATGGAAGA | 0.0525
ATGTATAA | 0.175
TGAACGCA | -0.0618
CGGTGATC | 0.0252
AATCTTCG | 0.12
CTATCTCC | 0.114
AGCCGACA | -0.142
AGCGACAC | -0.129
AACTGTCG | 0.00476
ACGGCTGA | -0.0753
AATCCTCC | 0.0382

Sequence | PBM E-score
CCTTCTTC | -0.19
AGACTACG | -0.114
AAATATAG | 0.199
GCATACAC | 0.024
GAGGCTCA | -0.297
CATTTTGA | 0.0309
CGCTTAAA | 0.0343
CGACCCCG | -0.0289
TAAGGATA | 0.137
ATTATTCA | 0.289
CTCCCAGC | -0.221
CCTTTATC | -0.00706
TAAGTGTA | 0.0997
GCTGGGAA | -0.0912
ATCTCTCA | -0.0609
CGTTCGCA | -0.103
CCGGGTAG | 0.00582
CGTAACGA | 0.00374
ACTGCGGC | -0.0979
TTAGCCAA | -0.0233
TAACAGAA | 0.213
CGCACCCC | -0.14
TATCTTCA | 0.118
CGGAATAG | 0.149
CGGTTGCC | -0.124

Sequence | PBM E-score
GAGAGAAC | 0.166
CGCAGGGC | 0.083
ACTGGAAT | 0.0551
AATGTTAG | 0.0845
GCTCCTGA | -0.0742
CACAAGCG | -0.13
GGTGCTAA | -0.0657
AATCAATG | 0.182
AATCTACG | 0.00117
GTGTGAGA | -0.0322
ACGGCCAC | -0.0203
ATGGTTGA | -0.0215
CACAACTA | 0.181
CTCACAAA | 0.121
AATTCAGG | 0.0428
CGCGTGGC | -0.0836
CAGTGTAC | -0.25
TAACAATA | 0.193
AATTTAGC | 0.189
ACGGCGAT | -0.012
AAAGTTCT | 0.149
CACTACAA | 0.154
ACGCGACG | -0.211
CTCCCCGA | -0.0284
AAACTTCA | 0.223

Sequence | PBM E-score
ACATAAGT | 0.0486
GATTAAGC | 0.171
CAAATCTG | 0.023
ATCGAGAT | -0.0686
GCACTCCC | -0.156
TCGGTCAA | 0.0249
CGTCGCTA | -0.0842
CGCCTTGA | -0.174
AAAGACCG | 0.132
CCGACCTA | 0.00057
GAAACTGA | -0.0944
ATAATTCA | 0.249
GAAGGCGC | -0.162
GAGCCTAA | 0.0539
TGCCGTAA | -0.168
CAAGAACC | 0.105
CGTTAACG | -0.112
CGCAACTA | 0.0777
CCGTTCCA | 0.00457
TCTGACAA | 0.0718
AGCTATTA | -0.0016
CAATCCAG | -0.0301
CTTTACGC | -0.0164
CACTATGG | -0.0771
AGCGTCAT | -0.0756

Sequence | PBM E-score
CAAAGCGG | 0.153
ACAGTTAG | 0.148
AGAGTGTG | 0.024
GACTCGTA | -0.116
ACACATAG | -0.0486
ACTTGCAT | -0.0318
GCTACGTA | -0.097
ACAGCGGG | -0.124
ATTGCAGC | -0.076
ACCTAAAC | 0.111
CCCATACA | -0.23
ATGCCTGG | -0.19
ATCCTAGC | -0.046
AGAAACCA | 0.131
GGGGAAAA | 0.091
CGGCTGCA | -0.153
GTTCTACA | -0.147
CATAGGAC | -0.121
CAGAACGA | -0.0073
AGATCGCC | -0.0712
CTTTATTC | 0.0327
CCCTGGCC | -0.196
ATCGGTTA | 0.252
GCCACCGC | -0.0803
GAAGAAAA | 0.239

Sequence | PBM E-score
CATAGTCA | -0.104
CAAGATTG | 0.0471
CCTGCAGG | -0.331
ACCCGTGC | -0.199
CACCCCTC | -0.352
ATAACTAC | 0.272
AGAAGAGG | -0.226
CGACCTAA | 0.0879
CGAGTCTC | -0.184
GTTTATAA | 0.183
CCTTGCTA | -0.0778
GAGCCCCC | -0.31
CAAGCGGA | 0.0999
ATACTTCA | 0.134
ATCCCCGA | 0.203
CAATAAGA | 0.0491
ACGGCTCT | 0.0391
ATCTTAAA | 0.177
CCTCATTA | 0.0882
ATTTGCTG | 0.133
TCGCCAAA | 0.0493
AGTTCTCG | 0.122
AATATCAC | 0.227
CAGCGACC | -0.221
AAGTCAAC | -0.0429

Sequence | PBM E-score
CTGCGATC | -0.166
AGCTGAGC | -0.245
AAAGGCAT | 0.113
AATCCTTG | -0.0659
GGAGGCGA | -0.302
ATTCTCAG | 0.00054
AACGCCCC | -0.0362
ATCAGAAA | 0.0611
ACTTTCAT | 0.137
AATAGGGC | -0.0135
CAGGTGGA | -0.221
TGTAACAA | 0.0296
CGTCTGAC | -0.0115
CTTAACTA | 0.0992
ATCTTAAG | 0.117
CTAGTGAG | -0.0997
GAAAAAGC | 0.0786
CAACTGAC | -0.119
ACGAAAAG | 0.14
GCTCCACA | -0.174
AACACGTT | -0.0975
GCAATAGA | -0.051

— the supplement of paper PMC3334620
